# “And” between values parts separate entries of the source, which are not always exact repeats. Identical values can stand only once. The shares of active, inactive and inconclusive entries below differ from those in the screen. For part of these data: A potency beside an inconclusive call is a rough fit, not a confirmed value. Some compounds were tested as several samples or in several runs, with calls that do not always agree. The source made the active and inactive calls. Unless noted, calls follow the shape of the dose curve; as a rule, active = well fitted curve in the direction sought with a large enough effect in the repeat runs; inconclusive = weak or mixed curves; inactive = no such curve, though single readings can be large; an effect the other way counts as inactive or inconclusive.
# Legend:
# [1] = molecular target: Progesterone receptor (Homo sapiens) (UniProt P06401); assay: qHTS assay to identify small molecule antagonists of the progesterone receptor (PR) signaling pathway (AID 1346795; active = well fitted inhibition curve with a large enough effect in the signal ratio in the repeat runs, not every such curve was filed as active; inconclusive = weak or mixed curves; the % refers to the signal ratio; also: potency is read from the fitted curve at half-maximal effect; as to activity change, negative = inhibition: % is scaled to controls: 0 for no effect and ±100 for the full control effect); conditions: PR-UAS-bla HEK293T, beta-lactamase FRET ratio, 16 h; activity change, negative = inhibition: at 92.4 µM (top of the series) unless noted
# Method in brief: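 PR-UAS-bla HEK293T cells with beta-lactamase reporter under UAS control, in 2% charcoal-stripped FBS, treated with compounds plus 1 nM promegestone (R5020, final) for 16 hr at 37C. Read-out: FRET beta-lactamase substrate fluorescence after 2 hr at room temperature.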
# [2] = Human pregnane X receptor (PXR) small molecule agonists, qHTS cell viability counter screen (AID 1346977); also: potency is read from the fitted curve at half-maximal effect; nearly all actives have a fitted effect of over 50% in size
# Method in brief: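 PXR-Luc HepG2 cells (2,000/well, 5% charcoal-stripped FBS) preincubated 5 hr, then exposed to compounds 24 hr at 37 C. Viability read in the same wells by CellTiter-Fluor fluorescence, reagent added at 23 hr, 1 hr incubation.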
# [3] = Caspase-3/7 induction in CHO-K1 cells by small molecules, qHTS cell viability counter screen (AID 1346979); conditions: CellTiter-Fluor fluorescence, 17 h; activity change, negative = cytotoxicity: at 92.4 µM (top of the series); also: nearly all actives have a fitted effect of over 35% in size; also: potency is read from the fitted curve at half-maximal effect; as to activity change, negative = cytotoxicity: % is scaled to controls: 0 for no effect and ±100 for the full control effect
# Method in brief: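 Wild-type CHO-K1 cells (1,500/well) treated with compound after 5 h plating; after 16 h at 37C, viability read as CellTiter-Fluor fluorescence following 1 h reagent incubation, in the same wells as the caspase read.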
# [4] = Caspase-3/7 induction in HepG2 cells by small molecules, qHTS cell viability counter screen (AID 1346981); also: potency is read from the fitted curve at half-maximal effect; nearly all actives have a fitted effect of over 30% in size
# Method in brief: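 Wild-type HepG2 cells (2,000/well) were allowed to settle for 5 hr at 37 C, 5% CO2, then dosed with compounds in DMSO by pin transfer. After 16 hr at 37 C, CellTiter-Fluor was added and fluorescence read 1 hr later.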
# [5] = molecular target: Cytochrome P450 2D6 (Homo sapiens) (UniProt P10635); assay: Cytochrome P450 Family 2 Subfamily D Member 6 (CYP2D6) small molecule antagonists: luciferase reporter qHTS assay (AID 1671196); also: nearly all actives have a fitted effect of over 50% in size; also: potency is read from the fitted curve at half-maximal effect; as to activity change, negative = inhibition: % is scaled to controls: 0 for no effect and ±100 for the full control effect
# Method in brief: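 CYP2D6 enzyme–substrate mix was held with compound for 10 min at room temperature, then NADPH regeneration solution was added and the reaction ran 1 h at room temperature. Luciferin product was detected by luminescence after 20 min with detection reagent.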
# [6] = molecular target: Cytochrome P450 2C9 (Homo sapiens) (UniProt P11712); assay: Cytochrome P450 Family 2 Subfamily C Member 9 (CYP2C9) small molecule antagonists: luciferase reporter qHTS assay (AID 1671198); also: nearly all actives have a fitted effect of over 50% in size; also: potency is read from the fitted curve at half-maximal effect
# Method in brief: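 CYP2C9 activity was measured with a P450-Glo proluciferin substrate. Enzyme–substrate mix was held with compound for 10 min at room temperature, then NADPH regeneration solution was added for 1 h at 37C. Luciferin product was read as luminescence.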
# [7] = qHTS assay to identify small molecule antagonists of the TGF-beta/Smad signaling pathway (AID 1346924; active = well fitted inhibition curve with a large enough effect in the signal ratio in the repeat runs, not every such curve was filed as active; inconclusive = weak or mixed curves; the % refers to the signal ratio); conditions: SBE-bla HEK293T, TGF-beta/Smad reporter, beta-lactamase ratio; activity, negative = inhibition: at 76.8 µM (top of the series) unless noted
# Method in brief: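 SBE-bla HEK 293T cells were plated overnight, then received compound in DMSO plus TGF-beta1 (added as a 0.25 ng/mL solution) and were incubated 5 h at 37 C. Beta-lactamase reporter activity was read after 2 h at room temperature with LiveBLAzer B/G FRET substrate (ex 405, em 460/530 nm).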
# [8] = molecular target: Cytochrome P450 2C19 (Homo sapiens) (UniProt P33261); assay: Cytochrome P450 Family 2 Subfamily C Member 19 (CYP2C19) small molecule antagonists: luciferase reporter qHTS assay (AID 1671197); also: nearly all actives have a fitted effect of over 65% in size; also: potency is read from the fitted curve at half-maximal effect; as to activity change, negative = inhibition: % is scaled to controls: 0 for no effect and ±100 for the full control effect
# Method in brief: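 Enzyme-substrate mix with proluciferin substrate (P450-Glo CYP2C19 system) preincubated with compounds 10 min at room temperature; NADPH regeneration solution added, 37C for 1 h; detection reagent stops reaction, luminescence read after 20 min. Ketoconazole positive control.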
# [9] = molecular target: Nuclear receptor subfamily 1 group I member 2 (Homo sapiens) (UniProt O75469); assay: Human pregnane X receptor (PXR) small molecule agonists, qHTS assay (AID 1346982); also: potency is read from the fitted curve at half-maximal effect; nearly all actives have a fitted effect of over 35% in size
# Method in brief: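 PXR-Luc HepG2 cells (CYP3A4 promoter-driven luciferase) were seeded in medium with 5% charcoal-stripped FBS, left 5 hr at 37 C, then exposed to compounds in DMSO for 24 hr. Luminescence was read after ONE-Glo addition.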
# [10] = Caspase-3/7 induction in HepG2 cells by small molecules, qHTS assay (AID 1346978); also: nearly all actives have a fitted effect of over 15% in size; also: potency is read from the fitted curve at half-maximal effect
# Method in brief: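 Wild-type HepG2 cells (2,000/well) were settled 5 h at 37 C, 5% CO2, then exposed to compounds in DMSO for 17 h. Caspase-3/7 activity was read by luminescence 30 min after adding Caspase-Glo 3/7 reagent at room temperature.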
# Tags tell the direction and shape of the fitted curve.
# UniProt P33261, sequence (P33261 whole entry, looked up): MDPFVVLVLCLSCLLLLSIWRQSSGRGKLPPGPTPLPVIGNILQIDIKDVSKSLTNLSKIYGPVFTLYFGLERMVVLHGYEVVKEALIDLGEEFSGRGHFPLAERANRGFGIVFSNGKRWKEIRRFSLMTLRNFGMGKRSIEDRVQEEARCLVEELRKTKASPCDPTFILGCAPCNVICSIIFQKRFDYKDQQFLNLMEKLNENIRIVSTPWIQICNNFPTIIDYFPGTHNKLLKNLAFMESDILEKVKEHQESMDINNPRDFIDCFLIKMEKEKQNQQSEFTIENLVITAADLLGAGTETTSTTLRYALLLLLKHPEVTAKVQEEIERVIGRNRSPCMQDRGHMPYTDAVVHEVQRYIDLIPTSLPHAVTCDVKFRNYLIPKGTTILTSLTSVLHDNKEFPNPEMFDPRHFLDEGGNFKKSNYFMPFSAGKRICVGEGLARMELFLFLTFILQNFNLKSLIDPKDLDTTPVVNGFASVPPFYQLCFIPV
# UniProt P10635, sequence (P10635 whole entry, looked up): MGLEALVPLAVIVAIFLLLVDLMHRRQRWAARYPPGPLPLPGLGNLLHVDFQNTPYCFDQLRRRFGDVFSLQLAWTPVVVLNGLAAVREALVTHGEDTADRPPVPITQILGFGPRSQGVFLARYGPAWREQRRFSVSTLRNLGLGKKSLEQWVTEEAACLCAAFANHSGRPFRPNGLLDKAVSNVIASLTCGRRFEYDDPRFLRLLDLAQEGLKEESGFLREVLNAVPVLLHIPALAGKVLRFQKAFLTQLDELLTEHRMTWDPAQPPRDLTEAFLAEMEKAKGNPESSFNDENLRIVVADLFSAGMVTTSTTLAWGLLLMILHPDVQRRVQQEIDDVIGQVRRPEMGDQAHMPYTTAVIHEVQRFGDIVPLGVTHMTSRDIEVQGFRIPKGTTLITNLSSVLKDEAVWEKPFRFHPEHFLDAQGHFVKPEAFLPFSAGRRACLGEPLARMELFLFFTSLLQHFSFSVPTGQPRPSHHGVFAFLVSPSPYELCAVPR
# UniProt P11712, sequence (P11712 whole entry, looked up): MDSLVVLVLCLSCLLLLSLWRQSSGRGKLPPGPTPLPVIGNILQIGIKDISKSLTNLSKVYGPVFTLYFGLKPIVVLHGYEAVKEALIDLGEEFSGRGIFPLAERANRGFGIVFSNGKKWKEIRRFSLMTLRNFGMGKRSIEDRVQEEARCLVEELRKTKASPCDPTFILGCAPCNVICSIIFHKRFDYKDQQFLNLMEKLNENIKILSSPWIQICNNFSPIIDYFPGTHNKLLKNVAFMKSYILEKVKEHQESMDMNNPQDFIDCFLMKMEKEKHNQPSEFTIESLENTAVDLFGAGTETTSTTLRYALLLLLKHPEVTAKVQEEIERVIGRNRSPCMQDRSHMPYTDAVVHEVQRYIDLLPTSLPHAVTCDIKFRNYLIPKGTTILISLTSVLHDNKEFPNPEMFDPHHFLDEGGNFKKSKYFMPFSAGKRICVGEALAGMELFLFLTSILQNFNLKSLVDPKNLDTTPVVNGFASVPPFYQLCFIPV
# UniProt P06401, sequence (P06401 whole entry, looked up): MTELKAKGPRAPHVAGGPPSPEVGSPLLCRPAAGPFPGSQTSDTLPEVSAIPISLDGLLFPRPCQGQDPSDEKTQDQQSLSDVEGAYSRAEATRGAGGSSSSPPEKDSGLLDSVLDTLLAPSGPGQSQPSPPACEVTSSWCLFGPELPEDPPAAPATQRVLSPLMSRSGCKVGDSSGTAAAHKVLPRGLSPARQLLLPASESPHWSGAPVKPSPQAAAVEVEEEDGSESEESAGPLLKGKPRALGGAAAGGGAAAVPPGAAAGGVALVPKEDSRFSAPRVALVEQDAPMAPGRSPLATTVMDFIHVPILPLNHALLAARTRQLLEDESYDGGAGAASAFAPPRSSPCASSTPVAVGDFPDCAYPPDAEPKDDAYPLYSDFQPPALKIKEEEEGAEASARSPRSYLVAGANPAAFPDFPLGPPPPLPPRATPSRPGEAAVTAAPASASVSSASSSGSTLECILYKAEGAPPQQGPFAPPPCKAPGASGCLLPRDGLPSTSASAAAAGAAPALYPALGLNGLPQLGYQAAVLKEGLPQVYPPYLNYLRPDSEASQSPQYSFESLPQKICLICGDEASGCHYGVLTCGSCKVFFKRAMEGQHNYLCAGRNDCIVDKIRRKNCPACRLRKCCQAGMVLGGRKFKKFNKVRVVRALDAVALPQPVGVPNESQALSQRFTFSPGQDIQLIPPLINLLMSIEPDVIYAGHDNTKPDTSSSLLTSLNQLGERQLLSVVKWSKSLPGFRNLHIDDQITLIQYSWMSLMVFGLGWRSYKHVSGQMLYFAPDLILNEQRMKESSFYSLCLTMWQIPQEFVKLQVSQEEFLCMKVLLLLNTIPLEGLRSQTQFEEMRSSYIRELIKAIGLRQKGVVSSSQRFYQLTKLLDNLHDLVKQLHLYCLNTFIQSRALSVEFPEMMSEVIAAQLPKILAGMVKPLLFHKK
# UniProt O75469, sequence (O75469 whole entry, looked up): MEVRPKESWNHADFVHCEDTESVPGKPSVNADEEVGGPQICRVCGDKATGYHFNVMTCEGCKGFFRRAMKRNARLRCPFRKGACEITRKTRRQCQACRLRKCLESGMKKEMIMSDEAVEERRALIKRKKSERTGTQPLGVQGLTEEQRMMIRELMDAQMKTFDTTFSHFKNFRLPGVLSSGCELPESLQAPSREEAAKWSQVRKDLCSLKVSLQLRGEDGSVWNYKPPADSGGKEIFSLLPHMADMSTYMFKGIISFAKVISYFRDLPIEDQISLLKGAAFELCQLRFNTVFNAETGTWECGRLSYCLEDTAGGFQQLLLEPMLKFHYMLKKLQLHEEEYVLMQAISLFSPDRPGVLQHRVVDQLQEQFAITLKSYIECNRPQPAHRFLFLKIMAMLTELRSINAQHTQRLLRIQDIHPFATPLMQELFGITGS
compound,measurement,setting,value
O=Cc1ccc(O)c(O)c1O,Potency,[1],"inconclusive: 29.8 µM [falling, single point]"
same,Potency,[2],"inconclusive: 33.5 µM [cytotoxic, single point]"
same,Potency,[3],"inconclusive: 33.5 µM [cytotoxic, single point]"
same,Potency,[4],"inconclusive: 33.5 µM [cytotoxic, single point]"
same,Potency,[5],inconclusive: 27.5 µM [inhibitor]
same,Potency,[6],"inconclusive: 38.9 µM [inhibitor, partial curve, poor fit]"
CC1=CC[C@@]23C[C@@H]1C(C)(C)[C@@H]2CC[C@H]3C,Potency,[1],inactive
same,"activity, negative = inhibition",[7],inconclusive: -0.118%
same,Potency,[8],"inconclusive: 89.4 µM [inhibitor, single point]"
same,Potency,[6],"inconclusive: 79.6 µM [inhibitor, single point]"
Oc1ccc2c(c1)-c1ccccc1C2,Potency,[1],active: 17.2 µM
same,Potency,[3],"inconclusive: 77 µM [cytotoxic, single point]"
C/C=C/C=C/C=O,"activity change, negative = inhibition",[1],inconclusive: 10.2%
same,Potency,[3],inactive
CCN(CCC#N)c1ccc(N=Nc2c(Cl)cc([N+](=O)[O-])cc2Cl)cc1,Potency,[1],"inconclusive: 21.7 µM [falling, full curve]"
same,"activity, negative = inhibition",[7],inconclusive: -23.2%
same,Potency,[2],"inconclusive: 15.4 µM [cytotoxic, partial curve]"
same,Potency,[4],"inconclusive: 12.2 µM [cytotoxic, full curve]"
same,Potency,[6],"inconclusive: 22.4 µM [inhibitor, full curve]"
CCCCOC(=O)c1ccc(O)cc1,Potency,[1],active: 27.6 µM and active: 27.3 µM and active: 26.6 µM
same,Potency,[3],"inconclusive: 77 µM [cytotoxic, partial curve, poor fit]"
same,Potency,[4],"inconclusive: 69.4 µM [cytotoxic, single point]"
same,Potency,[9],"inconclusive: 68.6 µM [activator, single point]"
same,Potency,[5],"inconclusive: 64.1 µM [inhibitor, partial curve] and inconclusive: 56.4 µM [inhibitor, partial curve] and inactive"
Cc1cc(C(C)(C)C)cc(C)c1CC1=NCCN1,Potency,[1],inactive
same,Potency,[2],"inconclusive: 29.8 µM [cytotoxic, partial curve]"
same,Potency,[8],inactive
OCCCCCCCCCCCCBr,"activity change, negative = inhibition",[1],inconclusive: -25.6%
same,"activity, negative = inhibition",[7],inconclusive: -7.79%
same,Potency,[3],"inconclusive: 69.6 µM [cytotoxic, single point]"
CCCCCc1ccc(O)cc1,Potency,[1],"inconclusive: 61.1 µM [falling, single point]"
same,"activity, negative = inhibition",[7],inconclusive: -16.4%
same,Potency,[10],inconclusive: 68.6 µM [activator]
same,Potency,[3],"inconclusive: 68.6 µM [cytotoxic, single point]"
same,Potency,[9],"inconclusive: 68.6 µM [activator, single point]"
same,Potency,[5],"inconclusive: 63.3 µM [inhibitor, partial curve]"
Fc1ccc([C@@H]2CCNC[C@H]2COc2ccc3c(c2)OCO3)cc1,Potency,[1],inconclusive: 29.8 µM
same,"activity, negative = inhibition",[7],inconclusive: -4.62% [at 35.3 µM]
same,Potency,[3],"inconclusive: 33.5 µM [cytotoxic, single point]"
same,Potency,[4],"inconclusive: 33.5 µM [cytotoxic, single point]"
C/C(C=O)=C\c1ccccc1,Potency,[1],inactive
same,"activity, negative = inhibition",[7],inconclusive: 0.984%
same,Potency,[6],inactive
COc1nc(C)nc(N)n1,Potency,[1],inactive
same,Potency,[10],inactive
same,Potency,[3],"inconclusive: 2.43 µM [rising, full curve, poor fit]"
NC(Cc1ccc(F)cc1)C(=O)O (stereo unspecified),"activity change, negative = inhibition",[1],inconclusive: 10.8% [at 8.39 µM]
same,Potency,[3],"inconclusive: 3.73 µM [cytotoxic, single point]"
c1ccc(CN(CC2=NCCN2)c2ccccc2)cc1,Potency,[1],"inconclusive: 9.44 µM [falling, partial curve]"
same,Potency,[2],"inconclusive: 26.6 µM [cytotoxic, partial curve, poor fit]"
same,Potency,[8],"inconclusive: 0.174 µM [inhibitor, full curve]"
same,Potency,[6],inconclusive: 27.5 µM [inhibitor]
C=C(C)C(=O)OCCN(CC)CC,Potency,[1],inactive
same,Potency,[3],inactive
Cc1c(C(=O)O)c(O)cc2c1C(=O)c1c(O)c([C@@H]3O[C@H](CO)[C@@H](O)[C@H](O)[C@H]3O)c(O)c(O)c1C2=O,Potency,[1],inconclusive: 75.1 µM
same,"activity, negative = inhibition",[7],inconclusive: -19.8%
same,Potency,[2],active: 11.2 µM and active: 13.7 µM and active: 23.7 µM
same,Potency,[4],active: 18.9 µM and active: 15.4 µM and active: 26.6 µM
same,Potency,[5],"active: 31 µM and active: 39.9 µM and inconclusive: 30.9 µM [inhibitor, partial curve]"
same,Potency,[8],"inconclusive: 89.4 µM [inhibitor, single point] and inconclusive: 43.6 µM [inhibitor, single point]"
same,Potency,[6],"active: 34.7 µM and active: 39.9 µM and inconclusive: 27.5 µM [inhibitor, partial curve]"
NC(=O)Nc1ccc(Cl)c(Cl)c1,"activity change, negative = inhibition",[1],inconclusive: -49.5%
same,"activity, negative = inhibition",[7],inconclusive: 0.115%
same,Potency,[5],"inconclusive: 28.2 µM [inhibitor, partial curve]"
same,Potency,[8],inconclusive: 70.8 µM [inhibitor]
same,Potency,[6],"inconclusive: 63.1 µM [inhibitor, partial curve]"

# Reference: PubChem BioAssay (Tox21)
